Read counts are not given, so values of variants with three or more changes are uncertain.

First the molecules themselves.
B1: CPEB3 Ribozyme (parent)
chain: UAACAGGGGGCCACAGCAGAAGCGUUCACGUCGCAGCCCCUGUCAGAUUCUGGUGAAUCUGCGAAUUCUGCUGUAUAUCUC

In the series the parent is B1. The experiment in a line: self-cleavage, relative activity (ratio to wild type); higher = more cleavage; in vitro, sequencing. Put shortly: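 For each CPEB3 ribozyme variant, relative activity is its cleaved/total read fraction divided by the unmutated ribozyme's. Barcoded error-prone PCR libraries were transcribed by T7 RNA polymerase (5 hours, 37°C) and held in DNase I for 15 min before an EDTA stop, with cleavage occurring throughout. Template-switching reverse transcription and Illumina sequencing were used to read the RNAs. A 5-read minimum applied, and results are the mean of three batches.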
As for UAACAGGGGGCCACAGCAGAAGCGUUCACGCCGCAGCCCCUGUCAGAUUCUAGUGGAUCUGCGAAUUCUGCUGUAUACCUC [U31C G52A A56G U78C], the self-cleavage stood at 0.82.

In the case of UAACAGGGGGCCACAGCAGAAGCGUUCACGCCGCAGCCCCUAUCAGAUUCUGGUGAAUCUGCGAAUUCUGCGGUAUAUCUC [U31C G42A U72G], the self-cleavage stood at 0.18.

With UAACAGGGGGCCACAGCAGAAGCGUUCACGCCGCAGCCCCUGUCAGAUUCUGGUGAAUCUACGAAUUCUGCUGUAUACCCC [U31C G61A U78C U80C], the self-cleavage came out at 0.3.

UAACAGGGGGCCACAGCAGAAGCGUUCACGCCGCAGCCCCUGUCAGAUUCUGGUGAAUCUGCGAAUUCUGCUCUAUACCUC [U31C G73C U78C]: the self-cleavage is 1.18.

Turning to UAACAGGGGGCCACAGCAGAAGCGUUCACGCCGCAGCCCCUACCAGAUUCUGGUGAGUCUGCGAAUUCUGCUGUAUAUCUC [U31C G42A U43C A57G], the self-cleavage is 0.09.

As for UAACAGGGGGCCACAGCAGAAGCGUUCACGCCGCAGCCCCAGUCAGAUUCUGGUGGAUCUGCGAAUUCUGCUGUAUAUCUC [U31C U41A A56G], the self-cleavage came out at 0.26.

For the variant UAACAGGGGGCCACAGCAGAAGCGUUCACGCCGCAGCCCCUGUCAGAUUCUGGUGAAUCUGCAAAUUCUGCCGUAUAUCUC [U31C G63A U72C], the self-cleavage came out at 0.6.

Consider UAACAGGGGGCCACAGCAGAAGCGUUCACGCCGCAGCCCCUGUCAGAUUCUGUUGAAUCUGCGGAUUCUGCUGUAUAUCUC [U31C G53U A64G], for which the self-cleavage was determined as 0.69.

As to UAACAGGGGGCCACAGCAGAAGCGUUCACGCCGCAGCCCCAGUCAGAUUCUGGUGAAUCUGCGUAUUCUGCUGUAUAUCUC [U31C U41A A64U], the self-cleavage was found to be 0.07.

UAACAGGGGGCCACAGCAGAAGCGUUCACGCCGCAGCCCCUGUCAGAUUCUUGGGAAUCUGCGAAUUCCGCUGUAUAUCAC [U31C G52U U54G U69C U80A]: the self-cleavage came out at 0.35.

Regarding UAACAGGGGGCCACAGCAGAAGCGUUCACGCCGCAGCCCCCGUCAGAUUCUGGUGAGUCUGCGAAUUCUGCUGUAUAUCUC [U31C U41C A57G], the self-cleavage came out at 0.8.

Turning to UAACAGGGGGCCACAGCAGAAGCGUUCACGCCGCAGCCCCCGUCAGAUUCUGGUGACUCUGCGAAUUCUGCUGUAUACCUC [U31C U41C A57C U78C], the self-cleavage was found to be 0.36.

With UAACAGGGGGCCACAGCAGAAGCGUUCACGCCGCAACCCCUGUCAGAUUCUGGUGAAUCUGCGAAUCCUGCUGUACAUCUC [U31C G36A U67C U76C], the self-cleavage was determined as 0.11.

In the case of UAACAGGGGGCCACAGCAGAAGCGUUCACGCCGCAGCCCCCGUCUGAUUCUGGUGAAUCUGCGAAUCCUGCUGUAUAUCUC [U31C U41C A45U U67C], the self-cleavage was 0.16.

On to UAACAGGGGGCCACAGCAGAAGCGUUCACGCCGCAGCCCCUGUCAGAUUCUAGUGAAUCUGCGUAUUCUGCUGUAUAUCUC [U31C G52A A64U], for which the self-cleavage stood at 0.24.

In the case of UAACAGGGGGCCACAGCAGAAGCGUUCACGCCGCAGCCCCAGUCAGAUUCUGGUGUAUCUGCGGAUUCUGCUGUUUAUCUC [U31C U41A A56U A64G A75U], the self-cleavage is 0.17.

Turning to UAACAGGGGGCCACAGCAGAAGCGUUCACGCCGCAUCCCCUGUCAGAUUCUGGUGAAUCUGCGAAUUCUGCUGUAUAUCUU [U31C G36U C81U], the self-cleavage was 0.09.

For UAACAGGGGGCCACAGCAGAAGCGUUCACGCCGCAGCCCCAGCCAGAUACUGGUGAAUCUGCGAAUCCUGCUCUAUAUCAC [U31C U41A U43C U49A U67C G73C U80A], the self-cleavage was determined as 0.06.

Regarding UAACAGGGGGCCACAGCAGAAGCGUUCACGCCGCAGCCCCAGCCAGAUUCUGGUGAAUCUGCGAAUUCUGCUGUAUAUCUC [U31C U41A U43C], the self-cleavage is 0.12.

Consider UAACAGGGGGCCACAGCAGAAGCGUUCACGCCGCAUCCCCUGUCAGAUUCCGGUGAAUCUGCGAAUUCUGCUGUAUAUCUC [U31C G36U U51C], for which the self-cleavage worked out at 0.07.

With UAACAGGGGGCCACAGCAGAAGCGUUCACGCCGCAGCCCCUGUCAAAUUCUGGUGAAUCUGCGAAUUCCGCAGUAUACCUC [U31C G46A U69C U72A U78C], the self-cleavage was determined as 0.04.

Take UAACAGGGGGCCACAGCAGAAGCGUUCACGCCGCAGCCCCAGUCAGAUUCUGGUGAAUCUGCGAAUUCCGCUGUAUAUCUC [U31C U41A U69C]: the self-cleavage was 0.22.

Consider UAACAGGGGGCCACAGCAGAAGCGUUCACGCCGCAGCCCCCGUCAGAUUCUGGUGAGUCCGCGAAUCCUGCUGUAUAUCUC [U31C U41C A57G U60C U67C], for which the self-cleavage was 0.17.

On to UAACAGGGGGCCACAGCAGAAGCGUUCACGCCGCAGCCCCAGCCAGAUUCUGGUGAAUCUGCGAAUUCUGCUGUACAUCUC [U31C U41A U43C U76C], for which the self-cleavage worked out at 0.12.

Take UAACAGGGGGCCACAGCAGAAGCGUUCACGCCGCAGCCCCUCUCAGAUUCUGGAGAAUCUGCGAAUCCUGCUGUAUAUCUC [U31C G42C U54A U67C]: the self-cleavage came to 0.1.

Regarding UAACAGGGGGCCACAGCAGAAGCGUUCACGCCGCAGCCCCAGUCAGAUUCUGGUGAGUCUGCGAACUCUGCUGUAUAUCUC [U31C U41A A57G U66C], the self-cleavage stood at 0.16.

On to UAACAGGGGGCCACAGCAGAAGCGUUCACGCCGCAGCCCCUCUCAGAUUCUGGUGAAUCUGCGAAUACUGCUGUAUAUCCC [U31C G42C U67A U80C], for which the self-cleavage was determined as 0.1.

As for UAACAGGGGGCCACAGCAGAAGCGUUCACGCCGCAGCCCCAGUCGGAUUCUGGUGAAUCUGCGAAUUAUGAUGUAUAACUC [U31C U41A A45G C68A C71A U78A], the self-cleavage is 0.07.

For UAACAGGGGGCCACAGCAGAAGCGUUCACGCCGCAGCCCCAGUCAGAUUCUGGUGAAUCUGCGAAUUCUGCCGUAUAUCCC [U31C U41A U72C U80C], the self-cleavage turned out to be 0.11.

As for UAACAGGGGGCCACAGCAGAAGCGUUCACGCCGCAGCCCCUGUCAGAUUCUGGUGAAUCUGCCAAUUCUGCCGUAUAUCUC [U31C G63C U72C], the self-cleavage was 0.79.

As to UAACAGGGGGCCACAGCAGAAGCGUUCACGCCGCAGCCCCCGUCAGAUUCUGGUGGAUCUGCGAAUUCUGCCGUAUAUCUC [U31C U41C A56G U72C], the self-cleavage turned out to be 0.24.

UAACAGGGGGCCACAGCAGAAGCGUUCACGCCGCAGCCCCCGUCAGAUUCUGGUGGGUCUGCGAAUUCUGCUGUAUAUCUC [U31C U41C A56G A57G]: the self-cleavage amounted to 0.35.

For the variant UAACAGGGGGCCACAGCAGAAGCGUUCACGCCGCAGCCCCAGUCUGAUUCUGGUGAAUCUACGAAUUCUGCUGUAUAUCUC [U31C U41A A45U G61A], the self-cleavage was 0.11.

As to UAACAGGGGGCCACAGCAGAAGCGUUCACGCCGCAGCCCCAGUCAGAUUCUGGUGAAUCUGAGAAUUCUGCUGUAUAUCCC [U31C U41A C62A U80C], the self-cleavage worked out at 0.21.
